Data as given in PubChem BioAssay AID1345082 (National Center for Advancing Translational Sciences (NCATS), 2018).
About 4,000 (4.3%) of roughly 94,000 compounds were called active. This list was built around the results that the source calls inconclusive (neither active nor inactive); the mix of calls is not that of the screen. Calls come from the whole dose curve; as a rule, active = well fitted inhibition curve with a large enough effect; inconclusive = small, poorly fitted or top-dose-only effect; inactive = no such curve, though single readings can be large or run the other way. Where the call is inconclusive, the potency comes from a doubtful curve fit.
Potency is the fitted concentration of half-maximal effect; tags give direction and shape of the fitted curve.

Assay: Cytotoxic Profiling in NIH 3T3 Cell Line of Diverse Libraries Using Quantitative High-Throughput Screening; note: nearly all actives have a fitted effect of over 55% in size
Settings: NIH 3T3 viability, CellTiter-Glo ATP luminescence, 48-72 h; series mostly up to 96.7 µM
In short: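 Luminescent ATP readout (CellTiter-Glo, 10 min RT) after 48 or 72 hr compound exposure of NIH 3T3 cells seeded at 400 cells/well in 1536-well format; quantitative HTS.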
For `CCn1cc(S(=O)(=O)N2CCC(OCc3noc(C4CCCO4)n3)CC2)cn1` (configuration not stated), the Potency was “inactive”. With `CCn1ccc(C(=O)N2CCC(Oc3ccccc3-c3nc(C4CCOCC4)no3)C2)n1` (configuration not stated) the Potency was inconclusive: 70.8 µM [inhibitor, single point]. In the case of `O=C(c1ccc(-c2cccs2)cc1)N1CCC(C(=O)N2CCOCC2)CC1`, the Potency is reported as inconclusive: 50.1 µM [inhibitor, partial curve, poor fit]. For `O=C1CCN(CC(O)COc2ccccc2)c2ccccc2CN1C1CC1` (configuration not stated), the Potency was inconclusive: 56.2 µM [inhibitor, partial curve, poor fit]. With `c1coc(CN2CCC(NC3CCCN(c4nc5ccccc5s4)C3)CC2)c1` (configuration not stated) the Potency was inconclusive: 79.4 µM [inhibitor, partial curve, poor fit]. For `O=C(C1CCCC1)N1CCCC(n2cc(-c3nc(-c4ccccc4)no3)nn2)C1` (configuration not stated), the Potency was inconclusive: 50.1 µM [inhibitor, partial curve, poor fit]. In the case of `Cc1ccc(S(=O)(=O)N2CCCC(CCC(=O)NCCCc3ccccc3)C2)cc1` (configuration not stated), the Potency is reported as inconclusive: 44.7 µM [inhibitor, partial curve, poor fit]. With `O=C(NCC(F)F)c1cc(-c2cccc(C(F)(F)F)c2)c2cccn2n1` the Potency was inconclusive: 50.1 µM [inhibitor, partial curve, poor fit]. With `Cc1nn(-c2ccccc2)c2c1C(C)N(C1CCCN(C(=O)NC3CCCC3)C1)C2=O` (configuration not stated) the Potency was inconclusive: 50.1 µM [inhibitor, partial curve, poor fit]. With `O=C1N(c2ccccc2)c2ccccc2C12CCN(CC1CCCCC1)C2` (configuration not stated) the Potency was inconclusive: 50.1 µM [inhibitor, partial curve, poor fit]. For `CC(C)n1cc(CN2CCC(Oc3ccc(C(=O)NC4CCCC4)cc3Cl)CC2)cn1`, the Potency was active: 39.8 µM. In the case of `Cc1ccc(C(=O)N2CCC(Cc3nc(-c4ccc(F)cc4)no3)CC2)cn1`, the Potency is reported as inconclusive: 5.62 µM [inhibitor, full curve, poor fit]. For `CC(=O)N1Cc2ccccc2OC2(CCN(C(=O)Cc3ccc(O)cc3)CC2)C1`, the Potency was inconclusive: 44.7 µM [inhibitor, partial curve, poor fit]. In the case of `CCOc1ccccc1CNC(=O)c1c(OCC)cc(=O)n2c1CCCC2`, the Potency is reported as inconclusive: 70.8 µM [inhibitor, single point]. With `CN(C)S(=O)(=O)N1CCC2(CC1)CC(=O)N(C/C=C/c1ccccc1)C2` the Potency was inconclusive: 63.1 µM [inhibitor, partial curve, poor fit]. In the case of `COc1ccccc1NC(=O)N1CCN2C(=O)NC[C@H]2C1`, the Potency is reported as inconclusive: 141 µM [inhibitor, single point]. With `Cc1ccc(Nc2ccnc(N3CCC(C(=O)N4CCC(Cc5ccccc5)CC4)CC3)n2)cc1` the Potency was inconclusive: 20 µM [inhibitor, full curve]. In the case of `OCc1cccc(-c2cc(C3=CCOCC3)c3cncn3c2)c1`, the Potency is reported as inconclusive: 89.1 µM [inhibitor, partial curve]. In the case of `O=C(NCc1ccccc1Cl)C1CCN(Cc2ccccc2-c2cccnc2)CC1`, the Potency is reported as inconclusive: 56.2 µM [inhibitor, partial curve, poor fit]. With `O=C(NCc1ccccc1)c1ccc(N2CC3CC(C2)[C@H]2CCCC(=O)N2C3)nc1` (some centres not stated) the Potency was inconclusive: 50.1 µM [inhibitor, partial curve, poor fit]. With `Cc1ccccc1CN1CC(Oc2cccc(C(=O)NCC3CC3)c2)C1` the Potency was inconclusive: 50.1 µM [inhibitor, partial curve, poor fit]. For `COc1ccc(CN2CC3(Cc4ccccc4C(=O)N3)C2)cc1`, the Potency was inconclusive: 56.2 µM [inhibitor, partial curve, poor fit]. In the case of `COc1cccc(-c2ccccc2NC(=O)C2CCN(Cc3cc(OC)ccc3O)CC2)c1`, the Potency is reported as inconclusive: 20 µM [inhibitor, full curve, poor fit]. In the case of `Cc1ccccc1CN1Cc2nc(-c3cnn(Cc4ccccc4)c3)ccc2OCC1=O`, the Potency is reported as active: 22.4 µM. In the case of `CC(C)n1c(C2CCN(C(=O)CCc3nc4ccccc4s3)CC2)nn(C)c1=O`, the Potency is reported as “inactive”. With `Cc1ccc(NC(=O)c2ccc(CN3C(=O)NC4(CCOCC4)C3=O)cc2)cc1C` the Potency was “inactive”. For `Cc1cc(CNC(=O)c2cc(-c3ccccc3F)cc3c2OCCN3C)no1`, the Potency was inconclusive: 89.1 µM [inhibitor, partial curve, poor fit]. In the case of `COc1ccc(C(=O)NC2CCN(c3ccnc4ccnn34)CC2)cc1`, the Potency is reported as “inactive”. For `CN1CCOc2c(C(=O)NCCN3CCNC3=O)cc(-c3cccnc3)cc21`, the Potency was inconclusive: 100 µM [inhibitor, partial curve, poor fit]. In the case of `O=C1CN([S+](=O)([O-])c2ccc(F)cc2)CC(O)CN1C1Cc2ccccc2C1` (configuration not stated), the Potency is reported as inconclusive: 50.1 µM [inhibitor, partial curve, poor fit]. For `O=C(NCC1CC1)c1cc(-c2cccc(C(F)(F)F)c2)c2cccn2n1`, the Potency was inconclusive: 44.7 µM [inhibitor, partial curve, poor fit]. For `CSCCC(=O)N1CCC(C2CCN(c3ncccn3)CC2)C1` (configuration not stated), the Potency was inconclusive: 50.1 µM [inhibitor, partial curve, poor fit]. For `COc1ccccc1C(=O)NCc1nnc2ccc(-c3ccc(C)cc3)nn12`, the Potency was inconclusive: 35.5 µM [inhibitor, partial curve, poor fit]. For `COCc1cc(CC2(NCc3ccc(N(C)C)cc3)COC2)no1`, the Potency was “inactive”. With `CN1CCCC2(C1)CN(C)c1ccc(C(=O)NCCOc3ccccc3)cc12` (configuration not stated) the Potency was inconclusive: 79.4 µM [inhibitor, partial curve]. For `Cc1ccc(C(=O)N2CCC3(CC2)N=C(c2cccc(Br)c2)NO3)s1`, the Potency was inconclusive: 50.1 µM [inhibitor, single point]. In the case of `CC(=O)N1CC[C@H]2COC(=O)N2c2cc(C)ccc2C1`, the Potency is reported as “inactive”. For `O=C(O)C1(c2ccccc2)CCN(S(=O)(=O)c2cccc(C(F)(F)F)c2)CC1`, the Potency was inconclusive: 50.1 µM [inhibitor, partial curve, poor fit]. In the case of `COc1ccc(C(=O)N[C@H]2CO[C@H]3[C@@H]2OC[C@@H]3n2nnnc2Oc2cccc(N(C)C)c2)cc1`, the Potency is reported as inconclusive: 100 µM [inhibitor, partial curve, poor fit]. With `C=CCCOC(=O)N1CCC(=O)N(CC=C)C[C@H]2COc3ccccc3[C@H]21` the Potency was inconclusive: 70.8 µM [inhibitor, partial curve, poor fit]. For `COc1ccc(CC(=O)N2Cc3ccccc3CC3(CCCN(C)C3)C2)cc1` (configuration not stated), the Potency was inconclusive: 50.1 µM [inhibitor, partial curve, poor fit]. For `CCN1c2cc(C(=O)Nc3ccc(N(C)C)cc3)ccc2C(=O)N2CCCCCC21` (configuration not stated), the Potency was inconclusive: 31.6 µM [inhibitor, full curve]. In the case of `O=C(c1ccncc1)N1CCC(c2cc(-c3ccc(F)cc3)n[nH]2)CC1`, the Potency is reported as inconclusive: 39.8 µM [inhibitor, partial curve, poor fit]. With `COc1cccc(-c2cc(C(=O)Nc3cccc(C(F)(F)F)c3)c3cnn(C)c3n2)c1` the Potency was inconclusive: 20 µM [inhibitor, full curve, poor fit]. With `COc1ccc(CNC(=O)c2cc(-c3ccc(F)cc3)cc3ncn(C)c23)cc1OC` the Potency was inconclusive: 56.2 µM [inhibitor, partial curve, poor fit]. With `CN1CCN(Cc2cn(Cc3ccccc3)nc2-c2ccc3c(c2)OCO3)CC1` the Potency was inconclusive: 89.1 µM [inhibitor, single point]. With `Cc1csc(NC(=O)c2nc(C(O)c3ccccc3)oc2C)n1` (configuration not stated) the Potency was active: 79.4 µM. For `NC(=O)Cc1c[nH]c2ncc(-c3cccc(CO)c3)cc12`, the Potency was inconclusive: 126 µM [inhibitor, partial curve, poor fit]. For `O=C(Cn1cccc1-c1nc(-c2ccc(F)cc2)no1)Nc1ccc2c(c1)OCO2`, the Potency was inconclusive: 50.1 µM [inhibitor, single point]. For `CCCN1CCC2(CCN(C(=O)c3ccccc3C)CC2)Oc2ccccc21`, the Potency was inconclusive: 50.1 µM [inhibitor, partial curve, poor fit]. With `COc1cccc(OC)c1CN1CC(O)CN(C(=O)OCC(C)C)CC1=O` (configuration not stated) the Potency was “inactive”. In the case of `FC1(F)C[C@@H](c2nnc(C3CC3)o2)N(C2CCOCC2)C1`, the Potency is reported as “inactive”. In the case of `C[S+](=O)([O-])N1CCc2nc(C3CC3)nc(-c3ccc(Cl)cc3)c2C1`, the Potency is reported as active: 31.6 µM. With `Cc1ccc2nc(C(=O)N[C@H]3COC[C@H]3Cc3cc(C)no3)cn2c1` the Potency was “inactive”. In the case of `COc1ccc(-c2cc(C(=O)NCc3c(C)cc(C)[nH]c3=O)c3c(c2)N(C(C)C)CCO3)cc1OC`, the Potency is reported as active: 25.1 µM. In the case of `Fc1ccc(-c2cnc([C@@H]3COCCN3Cc3ccccc3F)[nH]2)c(F)c1`, the Potency is reported as inconclusive: 79.4 µM [inhibitor, partial curve]. For `O=C(NCc1cccs1)C1CCN(c2nccc(Nc3ccccc3Cl)n2)CC1`, the Potency was inconclusive: 35.5 µM [inhibitor, partial curve]. In the case of `O=C(Cc1cccnc1)N1CCCC(c2nc(CCOc3ccc(F)cc3)no2)C1` (configuration not stated), the Potency is reported as “inactive”. For `CC(C)C[C@@H]1N[C@H](C(=O)N2CCCC2)Cc2cn(Cc3nccn3C)c3cccc1c23`, the Potency was “inactive”. In the case of `COc1ccc(CCNC(=O)c2cn3cc(-c4ccc(OC)cc4)sc3n2)cc1`, the Potency is reported as “inactive”. In the case of `O=C(c1cccc(Cl)c1)N1C[C@@H](CO)[C@H](c2nc(C3CC3)no2)C1`, the Potency is reported as “inactive”. In the case of `Cc1ccc(-c2nocc2CCC(=O)N2CCC(Cc3ccccc3)CC2)cc1`, the Potency is reported as inconclusive: 50.1 µM [inhibitor, partial curve, poor fit].
